The text below walks through data of article PMC10721220.

Sequences of proteins named here, by UniProt entry; tags and fusion partners are left off.
UniProt Q0VGT2: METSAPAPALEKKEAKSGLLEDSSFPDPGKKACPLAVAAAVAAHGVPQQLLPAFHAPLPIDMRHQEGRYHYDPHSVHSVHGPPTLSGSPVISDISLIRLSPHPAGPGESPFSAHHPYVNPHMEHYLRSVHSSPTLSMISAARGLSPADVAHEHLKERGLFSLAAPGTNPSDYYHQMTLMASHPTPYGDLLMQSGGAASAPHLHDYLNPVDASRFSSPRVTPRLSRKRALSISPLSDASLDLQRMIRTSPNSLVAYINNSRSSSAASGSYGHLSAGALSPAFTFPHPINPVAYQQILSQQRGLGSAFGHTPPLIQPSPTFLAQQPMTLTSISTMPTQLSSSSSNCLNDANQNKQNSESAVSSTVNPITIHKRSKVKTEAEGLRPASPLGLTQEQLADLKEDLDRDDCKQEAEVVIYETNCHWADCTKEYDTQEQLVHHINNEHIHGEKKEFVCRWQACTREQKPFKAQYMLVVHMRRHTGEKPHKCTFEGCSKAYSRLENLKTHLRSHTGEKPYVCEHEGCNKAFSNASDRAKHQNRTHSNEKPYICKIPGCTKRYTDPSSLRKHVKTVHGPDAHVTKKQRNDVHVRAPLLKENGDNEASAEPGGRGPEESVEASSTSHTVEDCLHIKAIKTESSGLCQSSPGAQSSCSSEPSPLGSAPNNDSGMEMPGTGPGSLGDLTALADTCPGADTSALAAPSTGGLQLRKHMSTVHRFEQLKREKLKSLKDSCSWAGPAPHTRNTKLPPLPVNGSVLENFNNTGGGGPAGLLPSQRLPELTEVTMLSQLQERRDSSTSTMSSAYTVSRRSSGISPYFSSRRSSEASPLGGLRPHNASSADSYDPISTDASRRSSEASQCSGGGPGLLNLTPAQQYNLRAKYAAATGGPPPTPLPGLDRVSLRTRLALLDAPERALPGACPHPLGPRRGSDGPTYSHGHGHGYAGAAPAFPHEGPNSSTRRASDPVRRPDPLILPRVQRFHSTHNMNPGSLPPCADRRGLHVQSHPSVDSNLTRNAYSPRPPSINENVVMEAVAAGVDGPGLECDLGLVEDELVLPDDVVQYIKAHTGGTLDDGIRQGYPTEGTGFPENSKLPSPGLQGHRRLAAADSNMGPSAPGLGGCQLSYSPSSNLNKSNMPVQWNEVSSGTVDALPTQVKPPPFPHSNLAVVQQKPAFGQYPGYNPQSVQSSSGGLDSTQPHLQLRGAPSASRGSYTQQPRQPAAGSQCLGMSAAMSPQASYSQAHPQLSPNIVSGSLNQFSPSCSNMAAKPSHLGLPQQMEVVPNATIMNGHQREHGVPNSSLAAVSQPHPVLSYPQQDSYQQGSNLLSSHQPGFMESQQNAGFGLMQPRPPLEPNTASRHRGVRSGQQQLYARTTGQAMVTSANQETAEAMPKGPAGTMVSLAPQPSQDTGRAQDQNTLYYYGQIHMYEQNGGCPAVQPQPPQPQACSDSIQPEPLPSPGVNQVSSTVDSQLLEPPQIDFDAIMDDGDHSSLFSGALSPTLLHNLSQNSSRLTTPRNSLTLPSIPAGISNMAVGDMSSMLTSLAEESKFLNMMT

These are yes or no findings as the source states them, for the method shown. In cells and extracts the contact can be indirect. Some entries that bind do so weakly or less than the wild type. For some of these results: Tags and fused reporters may be left off the sequences shown.

What all share (test): co-IP; HEK293T cells transfected 48 hr with the tagged constructs; cleared lysates incubated with Myc, HA or Flag antibody, protein A-Sepharose beads, 4°C; western blot; for Stk36/Gli2 with control or Ulk4 shRNA
Background: A western blot detects proteins with antibodies after separation by electrophoresis.

The target of test [1] is C-terminal HA-tagged human Ulk4 (hUlk4-HA) (human) (UniProt Q96C45).
For test [2], the target named is T1, hUlk4C-HA (451-1275, contains the C-terminal regulatory domain) (human) (UniProt Q96C45).
T1 sequence: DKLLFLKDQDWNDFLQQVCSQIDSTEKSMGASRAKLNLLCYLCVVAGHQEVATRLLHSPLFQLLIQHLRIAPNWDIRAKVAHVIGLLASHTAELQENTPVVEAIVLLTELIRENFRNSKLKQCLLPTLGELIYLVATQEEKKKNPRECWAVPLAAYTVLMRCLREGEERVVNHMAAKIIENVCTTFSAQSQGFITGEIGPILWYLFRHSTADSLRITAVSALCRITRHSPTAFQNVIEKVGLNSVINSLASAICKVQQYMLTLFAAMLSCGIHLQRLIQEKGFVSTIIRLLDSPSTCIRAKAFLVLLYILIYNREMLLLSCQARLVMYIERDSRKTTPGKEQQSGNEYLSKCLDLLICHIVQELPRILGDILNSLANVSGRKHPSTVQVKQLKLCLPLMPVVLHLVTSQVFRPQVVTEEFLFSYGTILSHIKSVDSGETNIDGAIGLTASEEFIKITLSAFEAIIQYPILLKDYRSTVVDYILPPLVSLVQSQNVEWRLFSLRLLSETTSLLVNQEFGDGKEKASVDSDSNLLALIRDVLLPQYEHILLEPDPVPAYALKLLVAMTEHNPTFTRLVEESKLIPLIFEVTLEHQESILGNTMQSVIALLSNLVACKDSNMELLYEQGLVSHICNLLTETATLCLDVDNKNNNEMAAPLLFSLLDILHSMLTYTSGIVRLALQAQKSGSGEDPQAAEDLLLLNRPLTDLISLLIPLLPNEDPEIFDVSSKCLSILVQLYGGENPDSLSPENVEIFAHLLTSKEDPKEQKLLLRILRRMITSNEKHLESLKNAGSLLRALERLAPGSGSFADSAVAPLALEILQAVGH

The target of test [3] is T2, hUlk4N-HA (aa 1-450, contains the pseudokinase domain) (human) (UniProt Q96C45).
T2 sequence: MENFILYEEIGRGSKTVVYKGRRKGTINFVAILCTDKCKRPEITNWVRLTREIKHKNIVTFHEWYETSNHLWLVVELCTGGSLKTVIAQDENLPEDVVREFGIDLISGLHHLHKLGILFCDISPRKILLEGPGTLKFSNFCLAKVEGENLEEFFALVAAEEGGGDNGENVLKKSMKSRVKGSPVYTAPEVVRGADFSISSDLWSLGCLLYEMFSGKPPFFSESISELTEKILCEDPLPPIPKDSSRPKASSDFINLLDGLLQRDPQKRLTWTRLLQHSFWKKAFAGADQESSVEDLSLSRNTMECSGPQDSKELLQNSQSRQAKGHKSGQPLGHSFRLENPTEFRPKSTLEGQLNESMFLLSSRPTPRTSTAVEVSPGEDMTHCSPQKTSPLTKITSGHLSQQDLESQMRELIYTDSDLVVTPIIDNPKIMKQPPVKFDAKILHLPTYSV

In test [4] the target is T3, Fg-Stk36C (regulatory domain of Stk36) (human) (UniProt Q9NRP7).
T3 sequence: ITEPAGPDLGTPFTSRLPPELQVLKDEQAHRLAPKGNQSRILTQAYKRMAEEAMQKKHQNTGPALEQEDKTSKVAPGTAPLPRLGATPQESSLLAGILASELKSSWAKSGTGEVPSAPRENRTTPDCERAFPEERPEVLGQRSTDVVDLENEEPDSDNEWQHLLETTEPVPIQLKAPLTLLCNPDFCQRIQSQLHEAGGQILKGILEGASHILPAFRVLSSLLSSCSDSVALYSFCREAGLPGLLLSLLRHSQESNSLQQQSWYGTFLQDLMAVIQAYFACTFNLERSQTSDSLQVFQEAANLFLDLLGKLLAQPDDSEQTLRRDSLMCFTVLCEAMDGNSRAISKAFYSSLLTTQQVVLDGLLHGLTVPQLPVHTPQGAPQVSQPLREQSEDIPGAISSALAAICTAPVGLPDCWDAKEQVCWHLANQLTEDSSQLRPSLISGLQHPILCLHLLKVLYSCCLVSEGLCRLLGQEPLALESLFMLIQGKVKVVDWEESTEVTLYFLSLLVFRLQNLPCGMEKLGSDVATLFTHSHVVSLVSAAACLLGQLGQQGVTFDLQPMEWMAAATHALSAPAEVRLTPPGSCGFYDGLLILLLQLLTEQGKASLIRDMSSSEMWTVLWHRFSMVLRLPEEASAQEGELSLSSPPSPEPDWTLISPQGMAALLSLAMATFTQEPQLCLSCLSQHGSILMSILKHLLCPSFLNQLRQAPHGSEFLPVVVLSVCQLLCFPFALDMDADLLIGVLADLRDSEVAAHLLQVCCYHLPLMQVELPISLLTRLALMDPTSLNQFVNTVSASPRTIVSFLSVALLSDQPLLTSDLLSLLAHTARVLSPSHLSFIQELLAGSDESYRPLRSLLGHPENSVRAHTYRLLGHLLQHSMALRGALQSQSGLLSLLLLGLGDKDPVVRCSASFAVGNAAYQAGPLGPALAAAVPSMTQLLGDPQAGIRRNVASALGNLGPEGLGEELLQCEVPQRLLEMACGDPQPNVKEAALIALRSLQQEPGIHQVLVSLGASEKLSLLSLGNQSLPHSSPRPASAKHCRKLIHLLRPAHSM

As for “Fg-Stk36N (kinase domain of Stk36, aa1-260) (from UniProt Q9NRP7 1-260) (domain or fragment)”, the binding result in test [1] was “binds”.

For “Myc-tagged Gli2 (Myc-Gli2) (from UniProt Q0VGT2 1-1544)”, the binding result is recorded as “binds” in test [1], “binds” in test [2], “no binding” in test [3] and “no binding” in test [4].

For “N-terminal CFP-tagged Stk36 (CFP-Stk36) (from UniProt Q9NRP7 1-1315)”, the binding result in test [1] was “binds”.

“N-terminally 3XFg-tagged human Stk36 (Fg-Stk36) (from UniProt Q9NRP7 1-1315) (enzyme)”: the binding entry in test [1] was “binds”; in test [2] it was “no binding”; in test [3], “binds”.

B1: Flag (Fg)-tagged Sufu (Fg-Sufu) (protein, UniProt Q9Z0P7 1-484)
chain: MAELRPSVAPGPAAPPASGPSAPPAFASLFPPGLHAIYGECRRLYPDQPNPLQVTAIVKYWLGGPDPLDYVSMYRNMGSPSANIPEHWHYISFGLSDLYGDNRVHEFTGTDGPSGFGFELTFRLKRETGESAPPTWPAELMQGLARYVFQSENTFCSGDHVSWHSPLDNSESRIQHMLLTEDPQMQPVRTPFGVVTFLQIVGVCTEELHSAQQWNGQGILELLRTVPIAGGPWLITDMRRGETIFEIDPHLQERVDKGIETDGSNLSGVSAKCAWDDLSRPPEDEEDSRSICLGTQPRRLSGKDTEQIRETLRRGLEINSKPVLPPINSQRQNGLTHDRAPSRKDSLGSDSSTAIIPHELIRTRQLESVHLKFNQESGALIPLCLRGRLLHGRHFTYKSITGDMAITFVSTGVEGAFATEEHPYAAHGPWLQILLTEEFVEKMLEDLEDLTSPEEFKLPKEYSWPEKKLKVSILPDVVFDSPLH
For the molecule B1, the binding result in test [1] is listed as “binds”; in test [2], “binds”; in test [3] it was “no binding”.

B2: Fg-Stk36C (regulatory domain of Stk36) (domain or fragment, UniProt Q9NRP7 261-1315)
chain: T3 sequence
Regarding B2, the binding result in test [1] is “no binding”.
